Data published in a collection of fitness landscapes (doi:10.1126/science.1257360).
The other results are listed elsewhere or left out.

B1: PhoQ; a variant is named by its letters at X, in order, P23837 (parent)
chain: MKKLLRLFFPLSLRVRFLLATAAVVLVLSLAYGMVALIGYSVSFDKTTFRLLRGESNLFYTLAKWENNKLHVELPENIDKQSPTMTLIYDENGQLLWAQRDVPWLMKMIQPDWLKSNGFHEIEADVNDTSLLLSGDHSIQQQLQEVREDDDDAEMTHSVAVNVYPATSRMPKLTIVVVDTIPVELKSSYMVWSWFIYVLSANLLLVIPLLWVAAWWSLRPIEALAKEVRELEEHNRELLNPATTRELTSLVRNLNRLLKSERERYDKYRTTLTDLTHSLKTPLXXLQXXLRSLRSEKMSVSDAEPVMLEQISRISQQIGYYLHRASMRGGTLLSRELHPVAPLLDNLTSALNKVYQRKGVNISLDISPEISFVGEQNDFVEVMGNVLDNACKYCLEFVEISARQTDEHLYIVVEDDGPGIPLSKREVIFDRGQRVDTLRPGQGVGLAVAREITEQYEGKIVAGESMLGGARMEVIFGRQHSAPKDE

Variants of: B1
Experiment: enrichment ratio after two sorts for PhoP signalling (ratio (wild type AVST 3.29)); higher = more functional
Conditions: with PhoP (E. coli)

Row | Variant | enrichment ratio
1 | PNVR | ≤ 0.25
2 | SKDA | ≤ 0.25
3 | WIWF | ≤ 0.25
4 | PLAR | ≤ 0.25
5 | LDRE | ≤ 0.25
6 | LHVG | ≤ 0.25
7 | FPIP | ≤ 0.25
8 | GKRI | ≤ 0.25
9 | EKCG | ≤ 0.25
10 | HHFG | ≤ 0.25
11 | RAQN | ≤ 0.25
12 | FFRN | ≤ 0.25
13 | VNGH | ≤ 0.25
14 | HDAC | ≤ 0.25
15 | VEPG | ≤ 0.25
16 | PGQG | ≤ 0.25
17 | YREA | ≤ 0.25
18 | LSHC | ≤ 0.25
19 | FLYR | ≤ 0.25
20 | ATSP | ≤ 0.25
21 | GQSE | ≤ 0.25

Row | Variant | enrichment ratio
22 | PDGI | ≤ 0.25
23 | FTQF | ≤ 0.25
24 | GVFD | ≤ 0.25
25 | GNWS | ≤ 0.25
26 | NRID | ≤ 0.25
27 | VNDQ | ≤ 0.25
28 | DWCC | ≤ 0.25
29 | IYSV | ≤ 0.25
30 | VRKC | ≤ 0.25
31 | PNDM | ≤ 0.25
32 | YEQN | 0.38
33 | GEKA | ≤ 0.25
34 | APFP | ≤ 0.25
35 | RASS | ≤ 0.25
36 | VTDD | ≤ 0.25
37 | WWYM | ≤ 0.25
38 | SACR | 3.76
39 | DWAS | ≤ 0.25
40 | IKCP | ≤ 0.25
41 | LPNA | ≤ 0.25
42 | WTDC | ≤ 0.25

Row | Variant | enrichment ratio
43 | SGRY | ≤ 0.25
44 | RCDE | ≤ 0.25
45 | SEGW | ≤ 0.25
46 | ARQA | ≤ 0.25
47 | AWCL | 0.642
48 | KSLN | ≤ 0.25
49 | VKIP | ≤ 0.25
50 | FGTL | ≤ 0.25
51 | FDLP | ≤ 0.25
52 | SWQW | ≤ 0.25
53 | GICD | 6.53
54 | PHLR | ≤ 0.25
55 | FVFT | ≤ 0.25
56 | AIQV | 4.69
57 | DITQ | ≤ 0.25
58 | NGPI | ≤ 0.25
59 | EEDA | ≤ 0.25
60 | TWWC | ≤ 0.25
61 | LFDY | ≤ 0.25
62 | DGPW | ≤ 0.25
63 | SFYA | ≤ 0.25

Row | Variant | enrichment ratio
64 | KSCW | ≤ 0.25
65 | YRKV | ≤ 0.25
66 | NWWW | ≤ 0.25
67 | NSNC | ≤ 0.25
68 | IPPH | ≤ 0.25
69 | TKSA | 0.579
70 | RYFW | ≤ 0.25
71 | VHFH | ≤ 0.25
72 | YIGK | ≤ 0.25
73 | QWAW | ≤ 0.25
74 | RKHL | ≤ 0.25
75 | TLSE | 10.7
76 | SKTH | ≤ 0.25
77 | LMHS | ≤ 0.25
78 | RQFW | ≤ 0.25
79 | IFWW | ≤ 0.25
80 | IDFM | ≤ 0.25
81 | EHHV | ≤ 0.25
82 | SARK | 0.446
83 | PGNL | ≤ 0.25
84 | KQSA | ≤ 0.25
